From paper PMC7819943, “Rice protein-binding microarrays: a tool to detect cis-acting elements near promoter regions in rice”
The other results are listed elsewhere or left out.

molecular target: T1, OsWOX13 (Oryza sativa, UniProt Q5QMM3 1-267); assay: protein-binding microarray (RPBM); PBS, 2% BSA, 51.3 ng/ul salmon testes DNA, 50 uM zinc acetate, 200 nM TF, 25 C, 1 h; high values mean tight binding; conditions: protein: recombinant; tags: N-terminal polyhistidine and DsRed monomer fusion (pET32a); label: CyDye5-dUTP incorporated in the synthesized complementary strand; 3' TTTTT single-stranded linker to array surface; dsDNA, one strand shown
T1 sequence: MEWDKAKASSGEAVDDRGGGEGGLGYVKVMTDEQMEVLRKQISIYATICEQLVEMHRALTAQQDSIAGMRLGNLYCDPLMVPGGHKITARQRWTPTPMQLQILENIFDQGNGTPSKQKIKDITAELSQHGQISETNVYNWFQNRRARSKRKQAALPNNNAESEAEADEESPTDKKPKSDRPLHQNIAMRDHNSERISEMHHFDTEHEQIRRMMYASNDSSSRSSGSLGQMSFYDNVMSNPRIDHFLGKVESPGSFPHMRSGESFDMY
Procedure, shortened: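 A custom Agilent array was converted to double-stranded form by primer extension with Cy5-dUTP and blocked with 2% BSA. Protein at 200 nM in PBS with 2% BSA, salmon testes DNA and 50 µM zinc acetate was applied for 1 h at 25 °C, followed by washing. The proteins were polyhistidine–DsRed N-terminal fusions of transcription factors, expressed in E. coli BL21-CodonPlus and Ni–NTA-purified. The binding signal is per-feature fluorescence intensity (arbitrary units) from an Axon 4000B scanner.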

| Sequence | binding signal |
| --- | --- |
| TTTAATTGTAACAAATATAACGAAATAATCAGATCCTTGACGGAGTCACCTAGTGCAG | 28800 fluorescence intensity (a.u.) |
| ACACATGATTTGCATGCCAACCTTATTTCTCCTTCACTTTCGGAGTCACCTAGTGCAG | 16500 fluorescence intensity (a.u.) |
| AGTGGGAGTCAATCATGCGAGTTCACGTGCATCGCTGAGACGGAGTCACCTAGTGCAG | 9570 fluorescence intensity (a.u.) |
| GTCATAAATTTATGCGGATTGGTGATGACTTGGTGTTTCACGGAGTCACCTAGTGCAG | 39000 fluorescence intensity (a.u.) |
| CATGACCTGCAAATTAACTCAAAATTTCTCCCTCTTAAACCGGAGTCACCTAGTGCAG | 4130 fluorescence intensity (a.u.) |
| AAACAGATTGAGTATGAGTCCCGTCGGAATGGGATACGTTCGGAGTCACCTAGTGCAG | 12300 fluorescence intensity (a.u.) |
| TTTCGTTAATTTTAAAATATATTGTGCAGTCTTTTGAGATCGGAGTCACCTAGTGCAG | 20500 fluorescence intensity (a.u.) |
| GACTTTAATGATGCTGACACCGGCTTAATTAGTATTGCGGCGGAGTCACCTAGTGCAG | 8560 fluorescence intensity (a.u.) |
| TCTCCGTCCCCATCACCCTCGCAATTACTCCACCCGCCGGCGGAGTCACCTAGTGCAG | 5550 fluorescence intensity (a.u.) |
| ACTTAAATGTAATTACAGTGTAACTTACATGTAACTACAGCGGAGTCACCTAGTGCAG | 30000 fluorescence intensity (a.u.) |
| AATTTATTAAGCCTAATTAATCCATCATTAGTAAATGTTTCGGAGTCACCTAGTGCAG | 5410 fluorescence intensity (a.u.) |
| CGTGATTGGTGGCATACATACGCTTCTTCTAGAGACAAGACGGAGTCACCTAGTGCAG | 37700 fluorescence intensity (a.u.) |
| GGTTTTAATAGATGGAGGTGTCGATATACCCAGTTTTGTGCGGAGTCACCTAGTGCAG | 8390 fluorescence intensity (a.u.) |
| CTCTGATCAAACTGACATGCATGGCACTAATTTTAGTTGACGGAGTCACCTAGTGCAG | 11500 fluorescence intensity (a.u.) |
| TGTATTAATTGTGTAGTATATGTTTAAAGGTAATTATTGTCGGAGTCACCTAGTGCAG | 20400 fluorescence intensity (a.u.) |
| TTTACAAACACGCAAATTAAAATTTTATTTATACAATTAACGGAGTCACCTAGTGCAG | 4180 fluorescence intensity (a.u.) |
| ATTCAATTTGCACTAATTTTGATAGTCAGGGAATACCCAACGGAGTCACCTAGTGCAG | 21100 fluorescence intensity (a.u.) |
| TTTGAGCCTAATTAATCCGTCATTAGCACATGTGGGTTACCGGAGTCACCTAGTGCAG | 7450 fluorescence intensity (a.u.) |
| GTCAAATCATGGCGCAATTAATCTTAAAAGATTTGTCTCGCGGAGTCACCTAGTGCAG | 23900 fluorescence intensity (a.u.) |
| ATGGTCTTAATCAATTGATATTTATAGAAGGTTTCTTTGACGGAGTCACCTAGTGCAG | 15300 fluorescence intensity (a.u.) |
| CCGTTGATCCAAAACTGATTTAACTCGATCTCACCATACACGGAGTCACCTAGTGCAG | 9590 fluorescence intensity (a.u.) |

| Sequence | binding signal |
| --- | --- |
| ATACTAAATTATTAATATCTAACCCACGAGTCCGTGATACCGGAGTCACCTAGTGCAG | 10800 fluorescence intensity (a.u.) |
| ACAAACATCAATCTAAATTTACGTTTTCTTAGTTGAAATACGGAGTCACCTAGTGCAG | 14300 fluorescence intensity (a.u.) |
| AATTAATCACTTGATGCAACCCTAATCAACTAACTTTAACCGGAGTCACCTAGTGCAG | 6590 fluorescence intensity (a.u.) |
| TGCAAACAATGATTTAGATGGTTGGTATAACCATATGTGACGGAGTCACCTAGTGCAG | 3770 fluorescence intensity (a.u.) |
| ATGATGATGGGAATACCAAAAGGATTACAATGCGTCTGCCCGGAGTCACCTAGTGCAG | 17100 fluorescence intensity (a.u.) |
| TTGTAGATTTATACCTGTCCTAATCAGAGTATACTGTATTCGGAGTCACCTAGTGCAG | 3990 fluorescence intensity (a.u.) |
| GATAAATTAAAGTTTTACGTTGGAGACTATGTATGCACCACGGAGTCACCTAGTGCAG | 8700 fluorescence intensity (a.u.) |
| GTCAACGGAGTAGAAATTATTAATTGAGAAAATTGTGCGCCGGAGTCACCTAGTGCAG | 8230 fluorescence intensity (a.u.) |
| TCGATCCTGATTGAACGGTCATGATTTATAAGTTCTATTTCGGAGTCACCTAGTGCAG | 31200 fluorescence intensity (a.u.) |
| AATCTAACGGGTGGGTCTCATGTATTGATGAGGAAGAAGACGGAGTCACCTAGTGCAG | 5960 fluorescence intensity (a.u.) |
| ACCGATGGTGATTAGTTTGGGACCATTTGATTCCCCATGGCGGAGTCACCTAGTGCAG | 19700 fluorescence intensity (a.u.) |
| ACAAATTGGACCACGATGTAAAACTTTGAAGGAGAGGGGCCGGAGTCACCTAGTGCAG | 9950 fluorescence intensity (a.u.) |
| ATTTTGACAAGGTTTATTTTAACATCAAACAGCTGGTTACCGGAGTCACCTAGTGCAG | 5490 fluorescence intensity (a.u.) |
| ACGTAGATTTACATTGGACCAGTAGTTAGCCTACTAGTACCGGAGTCACCTAGTGCAG | 6800 fluorescence intensity (a.u.) |
| GTTAATGGGCCGAGTACTTTCTTCACTCTGTTTATCGGTCCGGAGTCACCTAGTGCAG | 3660 fluorescence intensity (a.u.) |
| TATCCCTGTGTTTCTAATTTGTGTCTATTTGTGATAATCCCGGAGTCACCTAGTGCAG | 3540 fluorescence intensity (a.u.) |
| CTAATTATACAGATTGCGACTAATTTATGAGACGAATCTTCGGAGTCACCTAGTGCAG | 30000 fluorescence intensity (a.u.) |
| CAAATTTAATTAATGTCTTCCATACTTTCATCATTAGAAGCGGAGTCACCTAGTGCAG | 30600 fluorescence intensity (a.u.) |
| GTAATTATTAATTCTTTTCATATCATTTGATTCATTGTTACGGAGTCACCTAGTGCAG | 10400 fluorescence intensity (a.u.) |
| TGGAGATTGCTAATATCGCGGTTTAGAGTTGTCCCTTAAACGGAGTCACCTAGTGCAG | 3720 fluorescence intensity (a.u.) |
| GAAAATTACATACTAATTACATATGGGGTGTAATTACTGTCGGAGTCACCTAGTGCAG | 18900 fluorescence intensity (a.u.) |
